# Reference: PMC4336329 (PLoS ONE, 2015)
# Screen size: about 310,000 compounds; about 2,200 (0.71%) showed an effect of 50% or more. The effect is printed as a negative number. The list shows a part of the results.
# Target: human ether-à-go-go-related gene (hERG) potassium channel (human, UniProt Q12809)
# Experiment: primary screen, population patch clamp on CHO cells stably expressing hERG
# human ether-à-go-go-related gene (hERG) potassium channel, sequence (Q12809 whole entry, looked up): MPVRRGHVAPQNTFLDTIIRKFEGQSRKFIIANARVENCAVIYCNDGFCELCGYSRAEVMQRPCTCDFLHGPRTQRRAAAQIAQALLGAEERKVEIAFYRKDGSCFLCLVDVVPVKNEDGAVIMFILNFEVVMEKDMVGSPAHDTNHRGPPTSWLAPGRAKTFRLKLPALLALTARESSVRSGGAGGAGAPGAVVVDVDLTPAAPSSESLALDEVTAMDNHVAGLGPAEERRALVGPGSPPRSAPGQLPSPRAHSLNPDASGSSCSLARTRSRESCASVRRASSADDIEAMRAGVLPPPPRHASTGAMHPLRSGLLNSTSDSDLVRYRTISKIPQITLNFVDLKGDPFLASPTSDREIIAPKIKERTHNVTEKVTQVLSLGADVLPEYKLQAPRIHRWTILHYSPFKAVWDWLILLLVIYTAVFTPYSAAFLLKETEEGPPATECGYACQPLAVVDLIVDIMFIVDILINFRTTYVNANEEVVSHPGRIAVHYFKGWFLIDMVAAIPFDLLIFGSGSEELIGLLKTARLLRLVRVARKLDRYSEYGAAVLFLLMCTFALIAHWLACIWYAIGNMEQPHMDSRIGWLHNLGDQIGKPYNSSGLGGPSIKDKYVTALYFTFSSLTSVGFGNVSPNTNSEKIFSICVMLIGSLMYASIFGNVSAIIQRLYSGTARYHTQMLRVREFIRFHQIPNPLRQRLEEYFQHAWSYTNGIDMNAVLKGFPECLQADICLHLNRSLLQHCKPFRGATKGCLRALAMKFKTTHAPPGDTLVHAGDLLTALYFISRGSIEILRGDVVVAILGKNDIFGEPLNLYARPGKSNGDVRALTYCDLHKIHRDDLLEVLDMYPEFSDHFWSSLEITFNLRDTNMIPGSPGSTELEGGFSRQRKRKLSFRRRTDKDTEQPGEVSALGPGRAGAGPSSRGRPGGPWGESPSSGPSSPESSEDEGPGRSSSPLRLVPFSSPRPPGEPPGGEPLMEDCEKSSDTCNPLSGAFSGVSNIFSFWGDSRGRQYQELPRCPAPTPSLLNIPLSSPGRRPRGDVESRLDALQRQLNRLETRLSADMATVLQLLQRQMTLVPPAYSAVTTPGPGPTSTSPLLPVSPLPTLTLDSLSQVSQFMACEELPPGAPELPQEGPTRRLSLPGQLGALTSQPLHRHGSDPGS
row,SMILES,"hERG current change (%, negative = inhibition) at 1uM"
1,CCc1nnc(NC(=O)C2CCCN(S(=O)(=O)c3ccc(OC)cc3)C2)s1 (stereo not shown),11.3%
2,CCCNC(=O)CSc1nnc(-c2ccco2)n1C,4.54%
3,O=C(NNCc1ccc(O)cc1)c1ccccc1Cl,13.6%
4,O=C(NCc1ccco1)c1cc2c(s1)CCCCC2,-7.05%
5,CC(=O)c1ccc(NC(=O)CSCC(=O)Nc2ccc3ccccc3c2)cc1,12%
6,Cn1c(=O)c2c(SCC(N)=O)nc(CC(C)(C)C)nc2n(C)c1=O,4.58%
7,N#C/C(=C\c1ccc(OCc2cccc(C(=O)O)c2)cc1)C(=O)NCc1ccco1,10.6%
8,O/N=C/c1cn(-c2ccccc2)nn1,3.07%
9,Cc1ccc(C(=O)Oc2ccc(/C=C3\C(=N)N4N=C(N5CCOCC5)SC4=NC3=O)cc2)cc1,19%
10,CCCCc1nnc(NC(=O)CC(=O)Nc2ccccc2C(=O)O)s1,6.83%
11,C=C1CCN([C@@H](C)C(=O)OCc2cccc(C)c2)S(=O)(=O)c2ccccc21,13.4%
12,Cc1cc(C)c(C#N)c(SCC(=O)Nc2ccc(S(=O)(=O)Nc3onc(C)c3C)cc2)n1,7.18%
13,CCOC(=O)c1sc(Nc2nc3c(OC)cccc3s2)nc1C,4.72%
14,CCCN(Cc1ccccc1)C(=S)Nc1ccc(F)cc1,9.22%
15,Cc1cc(C)c2nc(SCC(=O)Nc3cc(C)on3)c(C)cc2c1,16%
16,CCC(NS(=O)(=O)c1c(C)[nH]c(=O)[nH]c1=O)C12CC3CC(CC(C3)C1)C2 (stereo not shown),-0.141%
17,CCOc1c(P(=S)(N(C)C)N(C)C)c(C)nn1-c1ccccc1,15.7%
18,C=CCn1c(SCc2ccc(Cl)cc2)nc2c1c(=O)[nH]c(=O)n2C,11.7%
19,O=C(Nc1ccc2c(c1)OCO2)c1cnccn1,8.63%
20,Cc1cc(C)cc(NS(=O)(=O)c2ccc3[nH]cc(C(=O)N4CCc5ccccc54)c(=O)c3c2)c1,11.6%
21,N#CC(C(=O)c1ccc(S(=O)(=O)N2CCCCCC2)cc1)c1nc2ccccc2[nH]1 (stereo not shown),7.36%
22,COc1ccc(N2C(=O)CSC23C(=O)N2CCCc4cccc3c42)cc1 (stereo not shown),11.5%

row,SMILES,"hERG current change (%, negative = inhibition) at 1uM"
1,COc1ccc(CNC(=O)c2c(C)cc(=O)oc2C)cc1OC,-5.28%
2,Cc1ccc(F)c(C2=CC(=O)C[C@H](c3ccc(F)cc3)C2)c1,2.4%
3,C=CCn1c(C(O)c2ccccc2)nc2ccccc21 (stereo not shown),12.8%
4,COCC(C)n1c(SCc2nc3ccccc3c(=O)[nH]2)nc2ccccc2c1=O (stereo not shown),-3.8%
5,O=C(NCCCNC(=O)c1ccco1)c1cccc(F)c1,2.55%
6,CCOC(=O)c1cnn(CCOC(=O)c2ccccc2)c1NC(=O)c1ccccc1,1.31%
7,CC(C)(C)OC(=O)[C@H](Cc1ccccc1)NC(=O)c1nc[nH]c1C(=O)NCc1ccccc1,13.2%
8,CCn1c(Cn2nnc(-c3ccccc3)n2)nnc1SCC(=O)Nc1cccc(C(C)=O)c1,2.68%
9,O=C(NC1CC1)C1CCN(C(=O)c2ccccc2Cl)CC1,13%
10,C/C(=N\O)C(C)/[N+]([O-])=C/c1nc(C)c(C)n1O (stereo not shown),18.1%
11,CC1(C(=O)N2CCN(C(=O)c3ccco3)CC2)CC1(Br)Br (stereo not shown),9.48%
12,c1ccc(-c2oc3ncnc(NCCCN4CCOCC4)c3c2-c2ccccc2)cc1,0.244%
13,O=C(Nc1ccc(N2CCN(C(=O)c3ccccc3)CC2)cc1)c1ccc(Br)o1,-6.32%
14,C/C(=C\c1ccccc1)C(=O)Nc1cc(C)on1,11.1%
15,CCC1CCCCN1CCCNC(=O)c1cc2c(=O)oc3ccc(C)cc3c2s1 (stereo not shown),-32.9%
16,CCN(Cc1ccccc1)c1ccc(/C=C(\C#N)c2ccccn2)cc1,5.5%
17,COc1ccc(-c2nn(CCC#N)cc2C(=O)Nc2ccccc2Br)cc1,16.4%
18,CC(C)(C)Cc1nnc(NC(=O)Cc2cccs2)s1,15.6%
19,O=C(COC(=O)/C=C/C(=O)N1CCN(c2ccccc2)CC1)NCc1ccc(F)cc1,3.08%
20,CCc1cc2c3c(c1)/C(=C1/SC(N)=NC1=O)C(=O)N3C(C)(C)C=C2C,10.2%
21,O=C(CCC(=O)N(c1ccc(F)cc1)C(C(=O)NC1CCCC1)c1ccncc1)Nc1cccnc1 (stereo not shown),0.818%
22,O=C(Oc1ccc(N(C(=O)c2ccncc2)S(=O)(=O)c2ccc(Cl)cc2)cc1)c1ccncc1,6.87%

row,SMILES,"hERG current change (%, negative = inhibition) at 1uM"
1,c1ccc(N2CC3CCc4ccccc4C3=N2)cc1 (stereo not shown),10.5%
2,O=C1CC(c2ccccc2)CN1C(=O)c1ccccc1 (stereo not shown),8.7%
3,COc1cccc(N2CCN(C(=O)c3cccn4c(=O)c5c(C)c(C)sc5nc34)CC2)c1,-0.0662%
4,N#Cc1cc(S(=O)(=O)c2ccccc2)c(N)[nH]c1=O,19.9%
5,Cc1csc(NC(=O)CSc2nnc(-c3ccoc3C)o2)n1,11%
6,O=C(Nc1cc(N2CCOCC2)ncn1)NC1(C(F)(F)F)Oc2ccccc2O1,15.5%
7,Cc1cc(S(=O)(=O)N2CCOCC2)ccc1OCC(=O)Nc1cccc(F)c1,-11.5%
8,CCOC(=O)C1=C(CNCc2ccccc2Cl)NC(=O)NC1c1ccc2c(c1)OCO2 (stereo not shown),10.5%
9,CSc1ccc(/C=N/Nc2nc(C)cc(C)n2)cc1,-0.532%
10,O=C(CSCc1ccccc1Br)Nc1ccccc1,11.1%
11,Fc1ccc(OCCn2cnc(Cl)c2Cl)cc1,9.18%
12,Cn1c(C(O)c2ccccc2)nc(Cl)c1Cl (stereo not shown),12.8%
13,Cc1ccc(NCN2C(=O)C3CC=CCC3C2=O)cc1 (stereo not shown),7.94%
14,O=C(Nc1ccc(C(F)(F)F)cc1)c1ccc(NC(=O)C2CCCO2)cc1 (stereo not shown),13.5%
15,Br.N=c1n(CCN2CCOCC2)c2ccccc2n1CC(=O)c1cccc([N+](=O)[O-])c1,-2.15%
16,O=C1CC(Sc2nnc(-c3ccccc3)o2)C(=O)N1c1ccccc1 (stereo not shown),8.63%
17,O=C(/C=C/c1cc([N+](=O)[O-])ccc1OC(F)F)NCc1ccc(Cl)cc1,8.29%
18,CS(=O)(=O)N1CCC(Oc2ccccc2C(=O)NC2CCCCCC2)CC1,2.93%
19,O=C(CCN1C(=O)/C(=C/c2ccccc2)SC1=S)NCCc1ccc(O)cc1,16.6%
20,Cc1ccc(-c2nnc(SCC(=O)CC(=O)Nc3ccccc3)n2C)cc1,1.61%
21,CN(c1ccc(C(=O)NCc2ccccc2)cc1)S(C)(=O)=O,7.98%
22,Cc1oc(-c2ccccc2)nc1CS(=O)CC(=O)O (stereo not shown),13.8%

row,SMILES,"hERG current change (%, negative = inhibition) at 1uM"
1,CCC(C)N1C(=O)/C(=C\c2cc3c4c(c2)CCCN4CCC3)C(=O)NC1=S (stereo not shown),15.4%
2,Cc1ccccc1N(CC(=O)NCCSc1ccccn1)S(=O)(=O)c1ccccc1,5.06%
3,CCCC(=O)Nc1ccc2c(c1)nc(CCN1CCN(c3ccccn3)CC1)n2C,1.68%
4,COc1cc(C2NCC(c3ccc(Cl)cc3Cl)c3c2[nH]c2ccccc32)cc(OC)c1OC.Cl (stereo not shown),5.01%
5,CCOc1ccc(S(=O)(=O)NCCSc2ccccc2)cc1,8.71%
6,CN(C)C(=O)CS(=O)(=O)c1ccc(Cl)cc1,9.59%
7,CCOC(=O)c1ccc2[nH]c3c(c2c1)CCCC3C(=O)OCC (stereo not shown),2.92%
8,Nc1sc2c(c1C(=O)NC1CCS(=O)(=O)C1)CCC2 (stereo not shown),11.3%
9,NC(=O)c1c[nH]c2ccccc12,11.8%
10,O=C(O)C1CC=CCC1C(=O)Nc1ccccc1C(=O)N1CCN(c2ccccc2)CC1 (stereo not shown),-6.17%
11,COCCNC(=O)c1cc2c(=O)n3cccc(C)c3nc2n(Cc2ccncc2)c1=N,-31.5%
12,O=C(CSC(=S)N1CCCC1)NCCc1ccccc1,3.02%
13,CCC(CO)Nc1ccc(-c2n[nH]c(=O)c3ccccc23)cc1[N+](=O)[O-] (stereo not shown),-0.384%
14,O=C(COc1ccccc1)c1cn(CC(=O)N2CCOCC2)c2ccccc12,6.62%
15,COc1ccc(-c2ccc3sc4ccccc4c(=O)c3c2)cn1,1.08%
16,O=C(Nc1ccc(C(=O)O)cc1)Nc1ccc(F)cc1F,8.79%
17,CCOC(=O)Cn1c(=NC(=O)C2COc3ccccc3O2)sc2cc(S(N)(=O)=O)ccc21 (stereo not shown),8.74%
18,CCN(C(=O)c1cc2c(s1)-c1ccccc1OC2)c1cc(OC)ccc1OC,10.1%
19,CC1SC(=NC(=O)c2ccncc2)NC1=O (stereo not shown),15.8%
20,O=c1[nH]cnc2c1nc(SCc1ccccc1)n2C1OC(CO)C(O)C1O (stereo not shown),3.11%
21,CC(C)COc1ccc(C(=O)Nc2ccc(NC(=O)c3ccco3)c(Cl)c2)cc1,12.9%
22,Cc1sc2ncnc(OCC(=O)N3CCN(S(=O)(=O)c4ccc(Cl)cc4)CC3)c2c1C,7.72%
